In all, about 420,000 compounds went through this assay and about 50,000 (12%) were called active. The shares of active, inactive and inconclusive entries below differ from those in the screen. The call rests on the fitted dose curve; in most records, active means well fitted inhibition curve with a large enough effect; inconclusive means small, poorly fitted or top-dose-only effect; inactive means flat fitted curve, though single readings scatter. Potencies of inconclusive entries are left out as doubtful fits.
Experiment: qHTS for Inhibitors of human tyrosyl-DNA phosphodiesterase 1 (TDP1): qHTS in cells in presence of CPT; further: nearly all actives have a fitted effect of over 55% in size
Conditions: chicken DT40 Tdp1-/-;hTDP1 cells + 20 nM CPT, ATP luminescence, 48 h; activity change, negative = growth inhibition: at 46.2 µM (top of the series) unless noted
Outline: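 Chicken DT40 Tdp1-/- cells stably complemented with human TDP1 were seeded at 400 cells/well in medium containing 20 nM camptothecin, exposed to pin-transferred compounds, and grown at 37 °C for at least 48 hr. Viability was read as ATP luminescence.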
On the % scale 0 is the no-effect control and ±100 the full control effect; potency means the concentration at half of the fitted maximal effect; tags describe the fitted curve by direction and shape.

| SMILES | activity change, negative = growth inhibition | Potency |
| --- | --- | --- |
| COc1ccc(N(CC(=O)NC(C)(C)C)C(=O)CCC(=O)Nc2nccs2)cc1 | inactive: -1.94% | – |
| CN(Cc1ccno1)Cc1cn(Cc2ccccc2)nc1-c1ccc2c(c1)OCO2 | – | inconclusive [inhibitor, partial curve] |
| COc1ccccc1C1C2=C(N=C3SCC(=O)N31)c1ccccc1CC2 (stereo unspecified) | – | inconclusive [inhibitor, single point] |
| CN1CCN(C(=O)C2=C[C@@H](c3csc4ccccc34)C[C@@H](OCCCCO)O2)CC1 | inactive: -28.5% | – |
| Cc1ccc(O)c(N=Cc2sc3ccccc3c2Cl)c1 | – | inconclusive [inhibitor, single point] |
| CCN(CC)CCCNc1nc2ccccc2c2[nH]c3ccc(OC)cc3c12 | – | active: 5.17 µM |
| COc1ccc2nc(NC(=O)Cc3ccc(OC)c(S(=O)(=O)N4CCOCC4)c3)sc2c1 | – | inconclusive [inhibitor, single point] |
| COc1ccc(Br)cc1/C=N/Nc1ccc(S(=O)(=O)Nc2ccccc2C(=O)O)cc1[N+](=O)[O-] | – | inconclusive [inhibitor, partial curve] |
| OC(c1ccc(F)c(F)c1)c1nc(-c2ccc(Cl)cc2)cs1 (stereo unspecified) | – | inconclusive [inhibitor, single point] |
| Cc1c(C(=O)Nc2ccccc2Br)oc2ccc(S(=O)(=O)N3CCCCCC3)cc12 | – | inconclusive [inhibitor, full curve, poor fit] |
| CCn1c2ccccc2c2cc(NC(=O)c3ccccc3[N+](=O)[O-])ccc21 | – | active: 20.6 µM |
| CCN(CC)CCN(C(=O)c1ccc2c(c1)OCCO2)c1nc2ccc(C)cc2s1 | – | inconclusive [inhibitor, single point] |
| Cc1cc(C)nc(N/C(=N/S(=O)(=O)Cc2ccccc2)Nc2ccccc2)n1 | – | inconclusive [inhibitor, single point] |
| C=C(C)CSc1nc2sc3c(c2c(=O)n1Cc1ccccc1)CC(C)(CC)OC3 (stereo unspecified) | – | inconclusive [inhibitor, single point] |
| COc1ccc(N(C(=O)CNC(=O)c2ccco2)C(C(=O)NC2CCCCC2)c2cccnc2)cc1 (stereo unspecified) | inactive: -1.82% | – |
| Cn1c2ccccc2c2ncn(Cc3ccco3)c(=O)c21 | inactive: -11.7% | – |
| Cc1cc(C(=O)Nc2ccc(S(=O)(=O)N3CCCC3)cc2)cs1 | – | inconclusive [inhibitor, single point] |
| Cc1ccc(-c2cn3cccnc3n2)cc1NC(=O)C(C)(C)Oc1ccc(Cl)cc1 | – | inconclusive [inhibitor, single point] |
| COc1ccc(Cl)cc1NC(=O)c1c(NCc2ccc(C)o2)sc2c1CCC(C)C2 (stereo unspecified) | – | inconclusive [inhibitor, single point] |
| N#Cc1cccc(-c2cc(NCc3ccccc3)ncn2)c1 | – | inconclusive [inhibitor, single point] |
| NNC(=O)CS(=O)(=O)CS(=O)(=O)CC(=O)NN | inactive: 18.4% | – |
| COc1ccc(Cl)cc1-c1cc(C(=O)Nc2ccc(F)cc2)[nH]n1 | – | inconclusive [inhibitor, single point] |

| SMILES | activity change, negative = growth inhibition | Potency |
| --- | --- | --- |
| CC1=C(C(=O)c2ccccc2)C(c2cccc([N+](=O)[O-])c2)NC(=S)N1 (stereo unspecified) | – | inconclusive [inhibitor, partial curve] |
| O=C(CSc1nc2c(c(=O)n1-c1ccc(Cl)cc1)SCC2)N1CCOCC1 | – | inconclusive [inhibitor, single point] |
| Cc1ccccc1N(CC(=O)NCc1ccccc1)C(=O)CCC(=O)Nc1nccs1 | inactive: -26.8% | – |
| CCN1C[C@@H]2[C@@H]3C(=O)N(Cc4ccccc4)C(=O)[C@@H]3[C@](Cc3ccccc3)(C1=O)N2C(=O)c1ccccc1 | – | inconclusive [inhibitor, single point] |
| CCC(C)NC(=O)CN1C(=O)c2cccnc2Sc2ccccc21 (stereo unspecified) | – | inconclusive [inhibitor, partial curve] |
| COc1cccc(NCc2cccn2-c2nnc(N3CCC(C)CC3)s2)c1 | – | inconclusive [inhibitor, single point] |
| CCCn1ncc(CN2CCC(C(=O)Nc3cccc(-c4cccc(F)c4)c3)CC2)c1C | – | active: 14.6 µM |
| CCCOC(=O)c1cccc(Nc2nc(CCC)cc(=O)[nH]2)c1 | – | active: 16.4 µM |
| COc1ccc(NC(=O)C2CCC(CNS(=O)(=O)c3cccc4nsnc34)CC2)cc1OC (stereo unspecified) | – | inconclusive [inhibitor, partial curve] |
| O=C1CCCN1CCCNC(=S)Nc1ccc(F)c(Cl)c1 | – | inconclusive [inhibitor, single point] |
| COc1nc(-c2ccccc2)ccc1-c1noc(-c2ccccc2F)n1 | – | inconclusive [inhibitor, partial curve] |
| Nc1ccc(C(Cc2ccnc3ccccc23)Cc2ccnc3ccccc23)cc1 | – | inconclusive [inhibitor, single point] |
| Cc1cc(C(=O)N/N=C/c2ccc3ccccc3c2)n[nH]1 | – | inconclusive [inhibitor, partial curve] |
| CCOC(=O)C1=C[C@@H](c2ccccc2)N(S(=O)(=O)c2ccc(C)cc2)[C@H]1c1ccc(F)cc1 | – | inconclusive [inhibitor, single point] |
| COc1nc(N/N=C/c2cc3c(cc2Br)OCO3)nc(N2CCOCC2)n1 | – | inconclusive [inhibitor, single point] |
| Cc1ccc(-n2nnnc2SCc2nnc(-c3ccccc3Br)o2)c(C)c1 | – | inconclusive [inhibitor, single point] |
| O=C(C1=C[C@H](c2csc3ccccc23)C[C@H](OCc2ccc(CO)cc2)O1)N1CCN(Cc2ccccc2)CC1 | – | inconclusive [inhibitor, single point] |
| COCCNC(=O)/C(C#N)=C/c1c(N2CCN(c3ccc(OC)cc3)CC2)nc2c(C)cccn2c1=O | – | active: 23.1 µM |
| OCCN(Cc1ccccc1)C(=S)Nc1ccc(Cl)cc1Cl | – | inconclusive [inhibitor, single point] |
| CCCCNC(=S)N(C)N=C1CCC(c2ccccc2)CC1 (stereo unspecified) | – | inconclusive [inhibitor, single point] |
| Cc1cc(N(C)C)cc(C)c1N=Nc1cc[n+]([O-])cc1 | – | inconclusive [inhibitor, single point] |
| CCCC(CCC)C(=O)Nc1c[nH]c(=O)[nH]c1=O | inactive: -5.08% | – |

| SMILES | activity change, negative = growth inhibition | Potency |
| --- | --- | --- |
| O=C(CN1CCN(S(=O)(=O)c2ccccc2)CC1)Nc1ccccc1Cl | – | inconclusive [inhibitor, single point] |
| COC(=O)c1cc2oc(C)cc2n1Cc1ccccc1Cl | – | inconclusive [inhibitor, single point] |
| O=C(C1=C[C@@H](c2ccc(Br)cc2)C[C@@H](OCc2ccc(CO)cc2)O1)N1CCOCC1 | – | inconclusive [inhibitor, single point] |
| COc1ccc2[nH]c3c(c2c1)CCNC3c1ccc([N+](=O)[O-])o1 (stereo unspecified) | – | active: 9.2 µM |
| Cc1ccc(NC(=S)N(CCCN2CCCC2)Cc2cccn2Cc2ccc(Cl)cc2)cc1C | – | inconclusive [inhibitor, single point] |
| CCOC(=O)Cn1c(=N)n(Cc2ccc(C(C)(C)C)cc2)c2ccccc21 | – | inconclusive [inhibitor, single point] |
| COc1ccc(NC(=O)CC2C(=O)N(c3ccccc3)C(=O)N2CCc2cccs2)cc1 (stereo unspecified) | inactive: -20.9% | – |
| COC(=O)CN(C#N)c1nc(NCc2ccccc2)nc(OC)n1 | – | inconclusive [inhibitor, single point] |
| OC(Cc1ccncc1)(c1ccccc1)c1ccccc1 | – | inconclusive [inhibitor, single point] |
| COCCNC(=O)CCCn1c(SCC(=O)Nc2ccc(F)cc2)nc2c(sc3ccccc32)c1=O | – | inconclusive [inhibitor, single point] |
| NC(Cc1ccc(Cl)cc1)c1csc(Nc2ccc(-c3ccccc3)nn2)n1 (stereo unspecified) | – | active: 6.51 µM |
| COc1ccc(OC)c(NC(=O)CSc2nnc3ccc(-c4ccncc4)nn23)c1 | – | inconclusive [inhibitor, single point] |
| O=C(Oc1ccnc2cc(Cl)ccc12)N1CCOCC1 | inactive: -22.2% | – |
| CCc1noc(C)c1C(=O)Oc1ccc(N(C)S(=O)(=O)c2ccc(C)cc2)cc1 | – | active: 18.4 µM |
| COc1cccc(C(O)c2ncc(-c3ccc(C(F)(F)F)cc3)[nH]2)c1 (stereo unspecified) | – | inconclusive [inhibitor, single point] |
| O=C(NCC1CCCO1)c1cccc(Oc2c(Cl)cccc2[N+](=O)[O-])c1 (stereo unspecified) | – | inconclusive [inhibitor, single point] |
| Cn1c(=O)n(C)c2cc(/C=N/N=C3/NC(=O)C(CC(=O)O)S3)ccc21 (stereo unspecified) | inactive: -3.04% | – |
| O=C(Nc1ccccc1C(=O)Nc1nncs1)c1ccccc1 | – | inconclusive [inhibitor, single point] |
| COc1ccccc1C1NC(=O)c2n[nH]c(-c3cccs3)c21 (stereo unspecified) | – | inconclusive [inhibitor, single point] |
| CCOC(=O)c1c(NC(=O)COC(=O)c2cnccn2)sc(C)c1C | inactive: -15.4% | – |
| Cc1ccc(NC(=O)Cn2nc(C(=O)O)c3ccccc3c2=O)cc1S(=O)(=O)N1CCCCCC1 | – | inconclusive [inhibitor, partial curve] |
| CN1CCC(CNC(=O)Nc2csc3ccccc23)CC1 | inactive: -13.1% | – |

Reference: PubChem BioAssay AID686979 (National Center for Advancing Translational Sciences (NCATS), 2013)
